From publication PMC4336329 (PLoS ONE, 2015)
Screen size: about 310,000 compounds; about 2,200 (0.71%) showed an effect of 50% or more. Effects have a minus sign here. The list shows a part of the results.

biological target: human ether-à-go-go-related gene (hERG) potassium channel (human, UniProt Q12809); experiment: primary screen, population patch clamp on CHO cells stably expressing hERG
Sequence (Q12809 whole entry, looked up): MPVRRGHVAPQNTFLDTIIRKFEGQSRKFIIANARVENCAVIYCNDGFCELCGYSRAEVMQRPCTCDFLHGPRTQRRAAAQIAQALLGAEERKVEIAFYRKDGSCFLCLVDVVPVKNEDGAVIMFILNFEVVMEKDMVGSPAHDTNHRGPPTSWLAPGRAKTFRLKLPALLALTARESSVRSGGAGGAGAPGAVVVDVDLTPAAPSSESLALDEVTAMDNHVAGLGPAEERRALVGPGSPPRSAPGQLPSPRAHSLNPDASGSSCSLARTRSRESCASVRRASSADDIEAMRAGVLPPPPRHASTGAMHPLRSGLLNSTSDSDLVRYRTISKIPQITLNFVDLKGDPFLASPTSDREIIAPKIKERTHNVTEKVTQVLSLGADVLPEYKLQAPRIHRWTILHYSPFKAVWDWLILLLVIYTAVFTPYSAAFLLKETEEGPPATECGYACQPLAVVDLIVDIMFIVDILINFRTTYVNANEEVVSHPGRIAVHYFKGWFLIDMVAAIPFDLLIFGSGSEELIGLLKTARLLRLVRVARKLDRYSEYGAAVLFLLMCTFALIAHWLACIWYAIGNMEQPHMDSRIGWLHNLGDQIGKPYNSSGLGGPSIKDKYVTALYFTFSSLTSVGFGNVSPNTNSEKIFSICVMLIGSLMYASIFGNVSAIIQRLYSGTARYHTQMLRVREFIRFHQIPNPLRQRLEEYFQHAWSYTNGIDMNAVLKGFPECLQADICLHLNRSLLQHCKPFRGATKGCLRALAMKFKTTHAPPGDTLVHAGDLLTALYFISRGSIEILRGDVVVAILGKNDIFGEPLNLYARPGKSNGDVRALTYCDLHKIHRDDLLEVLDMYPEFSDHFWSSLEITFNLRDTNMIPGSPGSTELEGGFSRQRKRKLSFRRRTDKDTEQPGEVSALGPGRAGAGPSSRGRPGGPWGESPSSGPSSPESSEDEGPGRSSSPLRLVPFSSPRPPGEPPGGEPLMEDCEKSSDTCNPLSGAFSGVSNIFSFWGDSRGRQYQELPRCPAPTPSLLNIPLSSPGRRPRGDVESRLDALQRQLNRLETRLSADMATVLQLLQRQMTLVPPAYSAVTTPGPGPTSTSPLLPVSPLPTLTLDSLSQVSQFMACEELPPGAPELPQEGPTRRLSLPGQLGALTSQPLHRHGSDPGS

| Compound | hERG current change (%, negative = inhibition) at 1uM |
| --- | --- |
| O=C(CN1CCOCC1)Nc1ccc(F)cc1 | 9.75% |
| COc1ccccc1NS(=O)(=O)c1ccc2oc(SCc3ccc(C#N)cc3)nc2c1 | 6.27% |
| Br.CCCSc1ccc2nc(-c3ccccc3)cn2c1 | 13.4% |
| O=S(=O)(NCC1CC1)c1ccc(F)c(Cl)c1 | 4.94% |
| N#CC1(c2nc3ccccc3[nH]2)CC1c1ccc2c(c1)OCO2 (stereo not drawn) | 11% |
| Cc1sc(NC(=O)c2ccccc2)c(C(=O)NCCN(C)C)c1C | 5.04% |
| Nc1nc(SCCOc2ccccc2)n[nH]1 | 8.36% |
| Cc1[nH]c(=O)[nH]c(=O)c1NC(=O)c1ccc(OC(C)C)cc1 | -0.315% |
| CCO[C@H]1OC(C(=O)NCc2nc3ccccc3[nH]2)=C[C@@H](C2CCCCC2)[C@@H]1CCCO | 16.3% |
| Cc1ccc(C)c(-n2cc(CNCCc3cnccn3)c(-c3ccccc3)n2)c1 | -20.3% |
| CCOc1ccc(CN2CCN(c3ncnc4scc(-c5ccccc5)c34)CC2)cc1 | -6.88% |
| C=CCC1(C(=O)N(C)Cc2ccccc2)CCN(C(=O)OC(C)(C)C)CC1 | 11.2% |
| Cn1c2ccccc2n2c(=O)c(=O)n(CC(=O)N3CCCc4ccccc43)nc12 | -1.27% |
| CCOc1cc(/C=C2\C(=N)N3N=C(C)SC3=NC2=O)ccc1OCCOc1ccccc1 | 8.11% |
| COC(=O)C1=C(c2ccccc2OCc2ccccc2)C[C@@H]2CC[C@H]1N2C(=O)NCCN1CCOCC1 | 11.4% |
| CC(=O)Nc1ccc(OCC(=O)NCc2ccc3c(c2)OCO3)cc1 | 8.6% |
| Oc1ccc(Br)cc1CN1CCCCCCC1 | -5.23% |
| O=C(COc1ccc(Br)cc1F)N1CCN(c2ncccn2)CC1 | -8.46% |
| CC(C)c1ccc2c(c1)C(c1ccc(N3CCOCC3)cc1)=NNC(c1cccs1)=N2 | -8.1% |
| COc1c(C)cc(C(=O)C2CCCN(S(=O)(=O)N(C)C)C2)cc1C (stereo not drawn) | -24.3% |
| COc1cccc(N2CCN(C(=O)c3cccc(NC4=NC5CS(=O)(=O)CC5S4)c3)CC2)c1 (stereo not drawn) | 5.77% |
| COc1ccc(C(=O)/C=C/Nc2ccc([N+](=O)[O-])cc2)cc1 | 13.5% |
| C=CCn1c(SCC(=O)Nc2nc(C)cs2)nnc1C(C)NC(=O)c1ccccc1Cl (stereo not drawn) | 8.11% |
| Cc1ccc(C)c(S(=O)(=O)N2CCCC2CNC(=O)C(=O)NCCN2CCOCC2)c1 (stereo not drawn) | 16.9% |
